{"source": "PubChem BioAssay AID651820", "about": "(National Center for Advancing Translational Sciences (NCATS), 2012)", "note": "About 12,000 (3.5%) of roughly 340,000 compounds were called active. This list was built around the results that the source calls inconclusive (neither active nor inactive); the mix of calls is not that of the screen. The call rests on the fitted dose curve; in most records, active means well fitted inhibition curve with a large enough effect; inconclusive means small, poorly fitted or top-dose-only effect, or another doubt; inactive means no such curve, though single readings can be large or run the other way. Potencies of inconclusive entries are left out as doubtful fits. On the % scale 0 is the no-effect control and ±100 the full control effect; potency means the concentration at half of the fitted maximal effect; tags describe the fitted curve by direction and shape."}
{"assay": "qHTS Assay for Inhibitors of Hepatitis C Virus (HCV)", "details": "Huh7.5.1 HCVcc-Cre (HCVcc is cell-culture hepatitis C virus) infection, luciferase reporter, 44 h; activity change, negative = inhibition: at 41.8 µM (top of the series) unless noted", "summary_of_the_method": "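Luciferase read-out (15 sec integration) after a 15 min room-temperature substrate step quantifies HCVcc-Cre infection. Cells, 1,000 per well, had compound added 4 h post-plating, then virus at ~0.5 moi, and were cultured 44 h.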"}
{"smiles": "Cc1noc(C)c1COC(=O)c1ccccc1Sc1ccccc1C#N", "Potency": "inconclusive [inhibitor, single point]"}
{"smiles": "CC(=O)N1c2ccc(S(=O)(=O)N(C)Cc3ccccc3)cc2CC1C", "note": "(centres undefined)", "Potency": "inconclusive [inhibitor, single point]"}
{"smiles": "COc1ccc(NC(=O)CSc2nc3sc4c(c3c(=O)n2-c2ccc(OC)cc2)CCN(C)C4)cc1", "Potency": "inconclusive [inhibitor, partial curve]"}
{"smiles": "Cc1oc(C)c2c(=O)ccc3c(c12)OC(N)=C(C#N)C3c1ccc(F)cc1", "note": "(centres undefined)", "Potency": "inactive"}
{"smiles": "O=C(CCn1c(=O)oc2ccccc21)N1CCN(c2ccccc2Cl)CC1", "Potency": "inconclusive [inhibitor, full curve]"}
{"smiles": "COc1cccc2c(=O)c3cccc(N)c3[nH]c12", "Potency": "inactive"}
{"smiles": "COc1ccc(C2CC(=O)C3=C(C2)NC(C)=C(C(=O)Nc2ccccc2C)C3c2coc3ccc(C)cc3c2=O)cc1OC", "note": "(centres undefined)", "Potency": "inconclusive [inhibitor, single point]"}
{"smiles": "COc1cccc(/C=N/c2nc3ccccc3[nH]2)c1O", "Potency": "inactive"}
{"smiles": "O=C(Nc1ccc(-c2csc(Nc3cccc(C(F)(F)F)c3)n2)cc1)c1cc([N+](=O)[O-])cc(C(F)(F)F)c1", "Potency": "inconclusive [inhibitor, partial curve]"}
{"smiles": "Cc1onc(-c2c(Cl)cccc2Cl)c1CO/N=C(\\C#N)c1c(Cl)cccc1Cl", "activity change, negative = inhibition": "inconclusive: -45.1% [inhibitor]"}
{"smiles": "CCN(CC)CCNCc1cc(Cl)ccc1OCc1ccccc1F", "Potency": "inactive"}
{"smiles": "Clc1ccc(SCCCN2CCCCC2)cc1", "Potency": "inconclusive [inhibitor, partial curve]"}
{"smiles": "Cc1ccc(C(=O)C[n+]2cc(-c3ccc(C)cc3)n3c2CCCCC3)cc1", "Potency": "inconclusive [inhibitor, partial curve]"}
{"smiles": "O=C1c2ccccc2C(Nc2ccc(Cl)cn2)N1Cc1ccccc1", "note": "(centres undefined)", "Potency": "inconclusive [inhibitor, single point]"}
{"smiles": "CC1CCCN(Cc2c(O)ccc3c2O/C(=C\\c2ccco2)C3=O)C1", "note": "(centres undefined)", "Potency": "inactive"}
{"smiles": "COc1cccc(-c2ccc(SCc3ccccn3)nn2)c1", "Potency": "inactive"}
{"smiles": "Cc1ccc(S(=O)(=O)N/N=C\\C=C\\c2ccccc2)cc1", "Potency": "inconclusive [inhibitor, full curve]"}
{"smiles": "COCC(=O)Nc1ccc(Br)cc1C", "Potency": "inactive"}
{"smiles": "CC(O)c1nc2ccc(C(=O)O)cc2[nH]1", "note": "(centres undefined)", "Potency": "inactive"}
{"smiles": "Cc1cccc(OCC(=O)N2CCN(Cc3ccc([N+](=O)[O-])cc3)CC2)c1", "Potency": "inconclusive [inhibitor, single point]"}
{"smiles": "CCOC(=O)c1cc2c(c(CSc3nc4ccccc4c(=O)n3Cc3ccco3)c1)OCOC2", "Potency": "inconclusive [inhibitor, full curve, poor fit]"}
{"smiles": "CCCn1c(=N)c(S(=O)(=O)c2ccc(F)cc2)cc2c(=O)n3cccc(C)c3nc21", "Potency": "inconclusive [inhibitor, full curve]"}
{"smiles": "Cc1ccc2nc3c(c(Nc4ccc(O)cc4)c2c1)CCC3", "Potency": "inconclusive [inhibitor, single point]"}
{"smiles": "Cc1ccc(Cl)c(OCCCCN(C)Cc2ccccc2)c1", "Potency": "inconclusive [inhibitor, single point]"}
{"smiles": "COc1ccc(CCC(=O)OCC(=O)Nc2sccc2C(N)=O)cc1", "Potency": "inactive"}
{"smiles": "Cc1ccnc(NC(=O)CCC(=O)N(CC(=O)NCc2ccccc2)Cc2ccccc2)c1", "Potency": "inactive"}
{"smiles": "CSc1nc(C)cc(OCCNS(=O)(=O)c2cc(C)ccc2C)n1", "Potency": "active: 22.4 µM"}
{"smiles": "Oc1ccc(/C=N\\Nc2cc(N3CCOCC3)nc(N3CCOCC3)n2)c(O)c1", "Potency": "inconclusive [inhibitor, full curve]"}
{"smiles": "CCN(Cc1ccccc1)C(=O)c1cccc(S(=O)(=O)N2CCN(c3ccc(F)cc3)CC2)c1", "Potency": "inconclusive [inhibitor, single point]"}
{"smiles": "COc1cccc(CNC(=O)c2ccc(Cl)c(NC3=NC4CS(=O)(=O)CC4S3)c2)c1", "note": "(centres undefined)", "Potency": "inactive"}
{"smiles": "CCC(=O)N(CCC(Cc1ccccc1)c1ccc2c(c1)OCO2)Cc1ccccc1F", "note": "(centres undefined)", "Potency": "inactive"}
{"smiles": "CC(C)(C)C(=O)COC(=O)c1cc(-c2cccnc2)nc2ccccc12", "Potency": "inactive"}
{"smiles": "COc1ccccc1CNC(=O)C1CCN(S(=O)(=O)c2ccc3c(c2)CC(C)N3C(=O)C2CC2)CC1", "note": "(centres undefined)", "Potency": "inconclusive [inhibitor, partial curve]"}
{"smiles": "Cc1ccc(/C=C/c2nc3ccccc3[nH]2)o1", "Potency": "inactive"}
{"smiles": "COCCn1c(C)cc(C(=O)COc2cccnc2[N+](=O)[O-])c1C", "Potency": "inactive"}
{"smiles": "CC(=O)N1c2ccc(S(=O)(=O)N3CCC(C(=O)Nc4cc(C)ccn4)CC3)cc2CC1C", "note": "(centres undefined)", "Potency": "inconclusive [inhibitor, single point]"}
{"smiles": "Cc1ccc(C2CC(c3ccc(Br)cc3)=NN2C(=O)CSC2=NN3CCCC(=O)N=C3S2)cc1", "note": "(centres undefined)", "Potency": "inconclusive [inhibitor, single point]"}
{"smiles": "CCC(C)C1=CC(=Nc2c(C)n(C)n(-c3ccccc3)c2=O)C=C(C(C)CC)C1=O", "note": "(centres undefined)", "Potency": "inconclusive [inhibitor, single point]"}
{"smiles": "CNC(=O)c1cccc(NC(=O)c2ccccc2OCc2ccccc2)c1", "Potency": "inconclusive [inhibitor, full curve]"}
{"smiles": "COCCNc1nc2c(S(=O)(=O)c3cc(C)ccc3C)nnn2c2ccccc12", "Potency": "inconclusive [inhibitor, partial curve]"}
{"smiles": "CCN(Cc1ccccc1)S(=O)(=O)c1ccc(C(=O)N2CCN(c3nc4ccccc4s3)CC2)cc1", "Potency": "active: 10 µM"}
{"smiles": "CCc1cccc(NC(=O)CN(C)S(=O)(=O)c2cccc3cccnc23)c1", "Potency": "inconclusive [inhibitor, partial curve]"}
{"smiles": "CCOc1ccc(NS(=O)(=O)c2ccc3[nH]cc(C(=O)NCC4CCCO4)c(=O)c3c2)cc1", "note": "(centres undefined)", "Potency": "inactive"}
{"smiles": "Cc1cc(C)c2sc(N(CCCN(C)C)C(=O)COc3ccc(Cl)cc3)nc2c1", "Potency": "inconclusive [inhibitor, partial curve]"}
{"smiles": "O=C(NCCO)C(=O)NCC1OCCCN1S(=O)(=O)c1cccs1", "note": "(centres undefined)", "Potency": "inactive"}
{"smiles": "Nc1[nH]nc2nc3ccccc3cc12", "Potency": "inactive"}
{"smiles": "CC(=O)c1ccc(N2CCN(C(=O)c3cc4c(s3)CCCC4)CC2)cc1", "Potency": "inconclusive [inhibitor, single point]"}
{"smiles": "Cc1ccccc1Oc1cc(NC(=O)CCCn2nc(C)c([N+](=O)[O-])c2C)cc([N+](=O)[O-])c1", "Potency": "inconclusive [inhibitor, partial curve, poor fit]"}
{"smiles": "COc1ccc(OC)c(C(=O)c2coc3ccc(OC(C)=O)cc23)c1", "Potency": "inactive"}
{"smiles": "Cc1ccc(C(=O)OCC(=O)Nc2nc(-c3ccccc3)cs2)cc1NC(=O)c1ccco1", "Potency": "active: 11.2 µM"}
{"smiles": "C[C@H](NC(=O)c1ccco1)C(=O)Nc1cc(S(=O)(=O)N2CCCC2)ccc1OCC(F)(F)F", "Potency": "inconclusive [inhibitor, single point]"}
{"smiles": "CCCCC(=NCCc1c(C)[nH]c2ccccc12)C1=C(O)CC(c2ccccc2)CC1=O", "note": "(centres undefined)", "Potency": "inconclusive [inhibitor, full curve, poor fit]"}
{"smiles": "Cc1ccc2cc(NC(=O)CC(CC(=O)O)c3ccccc3)ccc2n1", "note": "(centres undefined)", "Potency": "inactive"}
{"smiles": "Cn1c(=O)c2c(ncn2Cc2ccc(Cl)c(Cl)c2)n(C)c1=O", "Potency": "inconclusive [inhibitor, partial curve]"}
{"smiles": "C[C@H](CO)N1C[C@H](C)[C@@H](CN(C)Cc2ccc(-c3ccccc3)cc2)Oc2c(NS(=O)(=O)c3ccc(F)cc3)cccc2C1=O", "Potency": "inconclusive [inhibitor, single point]"}
{"smiles": "FC(F)(F)c1cc(-c2ccccc2)nc(NCc2cccnc2)n1", "Potency": "inconclusive [inhibitor, single point]"}
{"smiles": "CC1=C(N2CCOCC2)CCC1=O", "Potency": "inactive"}
{"smiles": "CNC(=O)CN(c1ccc(F)cc1)S(=O)(=O)c1cc(C)ccc1OC", "Potency": "inconclusive [inhibitor, single point]"}
{"smiles": "CCOC(=O)c1c(C)[nH]c(C(=O)OCc2ccc([N+](=O)[O-])cc2)c1C", "Potency": "inconclusive [inhibitor, partial curve, poor fit]"}
{"smiles": "COc1ccc(N2CCN(S(=O)(=O)c3cc4c(cc3C)N(C(C)=O)CCO4)CC2)cc1", "Potency": "inactive"}
{"smiles": "CCC(CC)N1CCN(S(=O)(=O)c2ccc(OC)cc2)CC1", "Potency": "inactive"}
{"smiles": "O=C(N/N=C\\c1cccc(Cl)c1)c1ccc(Cn2cc(Br)c([N+](=O)[O-])n2)o1", "Potency": "inconclusive [inhibitor, single point]"}
{"smiles": "Cc1cc(OCc2cc(C(=O)NCC3(C)COC3)no2)cc(C)c1Cl", "Potency": "inconclusive [inhibitor, single point]"}
{"smiles": "O=C(O)c1ccc(NC2=C/C(=N/S(=O)(=O)c3ccccc3)c3ccccc3C2=O)cc1", "Potency": "active: 6.31 µM"}
{"smiles": "CCOC(=O)N1CCN(Cc2nc(N)nc(Nc3ccc(OC)cc3)n2)CC1", "Potency": "inconclusive [inhibitor, single point]"}
{"smiles": "Cc1ccc(Cn2c(=S)[nH]c3ccc(N4CCOCC4)cc3c2=O)o1", "Potency": "inconclusive [inhibitor, single point]"}
{"smiles": "COc1cc(SC)ccc1C(=O)Nc1ccc2c(c1)OCO2", "Potency": "inconclusive [inhibitor, single point]"}
{"smiles": "C/C(=N\\NC(=O)CSCc1ccc([N+](=O)[O-])cc1)c1ccccc1O", "Potency": "inconclusive [inhibitor, single point]"}
{"smiles": "Cc1cccc(Cc2c(C)nc3nc(SCC(=O)NCc4ccco4)nn3c2C)c1", "Potency": "inconclusive [inhibitor, single point]"}
